Experimental data published in PubChem BioAssay AID651582 (Sanford-Burnham Center for Chemical Genomics, 2012).
Where “and” joins values, the source holds several entries; their conditions need not be identical. Equal entries are not always repeated. This is one part of the list. Shown are side measurements of this screen, not its main read-out; they come without a call. Most of these compounds were active or inconclusive in the main read-out, so they are no random draw.

Assay: TAG lipid buildup reduction in H9c2 cells – cell-based, uHTS, fluorescence, primary screen (AID 651582)
Settings: Nile Red lipid (TAG) fluorescence, measured here:, at 12.5 µM, cells loaded with 200 µM oleic acid

SMILES | DAPI nuclei signal change (viability), lower = more cytotoxic
COC(=O)[C@@]1(Cc2ccccc2)[C@H]2C(=O)N(Cc3ccccc3)C(=O)[C@H]2[C@H]2CN=C(SCc3ccc(Cl)cc3)N21 | 9.45%
CC(CC(=O)Nc1ccc2c(c1)c(=O)n(C)n2-c1ccc2ccccc2c1)C(F)(F)F (stereo unspecified) | -35.9%
O=C(Nc1ccc(-c2csc(Nc3cccc(C(F)(F)F)c3)n2)cc1)c1ccccc1 | -4.93%
CCOc1cc2[nH]c(=O)n(CCCCC(=O)N3CCCCCC3)c(=O)c2cc1OCC | -6.76%
O=c1cc(N2CCN(c3ccccc3)CC2)[nH]c(=O)n1C1CCCCC1 | -22.3%
CCN(C(=O)COC(=O)c1ccc([N+](=O)[O-])o1)c1cccc2ccccc12 | -49.6%
CN(C)CC(C(=O)c1ccccc1)c1ccccc1 (stereo unspecified) | -38.4%
Nc1nc(CCl)nc(N(c2ccccc2)c2ccccc2)n1 | -42.3%
CCOC(=O)c1ccc(NC(=O)c2nc[nH]c2C(=O)NCCNC(=O)c2[nH]cnc2C(=O)Nc2ccc(C(=O)OCC)cc2)cc1 | 1.44%
COc1cc2sc(-c3ccccc3OC)c(-c3ccc(OCCN4CCCCC4)cc3)c2cc1OC | 0.0807%
CCOc1ccc(CCNC(=O)c2cc3sc(Cl)cc3n2C)cc1OCC | 1.72%
Cc1cc(C)cc(C(=O)N2CC(=O)Nc3ccccc32)c1 | -28.4%
COCCOC(=O)c1[nH]c2c(c1C)C(=O)CC(c1ccco1)C2 (stereo unspecified) | -44.1%
Nc1c2ccccc2nc2ccccc12 | 24.4% and 2.96%
Clc1cccc(-c2cc3nc4c(c(N5CCN(c6cnccn6)CC5)n3n2)CCCC4)c1 | 5.35%
COC1C(CO)OC(n2c3c(Cl)cccc3c3c4c(c5c6cccc(Cl)c6[nH]c5c32)C(=O)NC4=O)C(O)C1O (stereo unspecified) | -49%
c1ccc2c(c1)NC(c1ccncc1)n1c-2nc2ccccc21 (stereo unspecified) | -6.3%
CO/N=C/C(=N\Nc1ccc(C)cc1)C(=O)c1ccc(OC)cc1 | -44.7%
Cc1ccc(NC2=Nc3ccccc3N3C2=Nc2c(c(C)nn2-c2ccccc2)C3c2ccc(O)c(O)c2)cc1 (stereo unspecified) | 74.8%
CCCCCCCCCCCCCCCC[n+]1cccc(C(=O)N(CC)CC)c1 | 2.52%
Nc1nc(-c2ccccc2)cc(N2CCCCC2)n1 | -31.5%
S=C(N/N=C/c1cccs1)NC1CC2CCC1C2 (stereo unspecified) | -0.213%
CCCCCC(=C/c1ccccc1)/C=N/Nc1ccc(S(=O)(=O)N2CCOCC2)cc1[N+](=O)[O-] | -15.1%

SMILES | DAPI nuclei signal change (viability), lower = more cytotoxic
COc1ccc(-c2nn(-c3ccccc3)cc2/C=C/C(=O)OCC(=O)Nc2ccccc2C#N)cc1 | -31.8%
CCOc1ccc(CCNC(=O)CN2CCN(Cc3ccccc3F)C2=O)cc1OCC | -4.47%
COc1cc(-c2nc(-c3ccc(NC(=O)c4ccc(Br)o4)cc3)no2)cc(OC)c1OC | 6.55%
COc1ccccc1/C=C/C(=O)NCC(=O)N/N=C/c1cc(Br)ccc1OC | -16.4%
COC(=O)[C@@]1(Cc2ccc(F)cc2)[C@H]2c3cc(C(=O)N4CCCC4)n(CCCNc4ncc(C(F)(F)F)cc4Cl)c3C[C@H]2CN1C(=O)c1ccccc1 | -6.08%
Cc1ccc(-n2cc(CNCCCn3cccn3)c(-c3cccc(C)c3)n2)cc1 | -2.62%
CCOC(=O)c1cc(CC)sc1NC(=O)c1cc(OC)c(OC)c(OC)c1 | 0.0743%
COc1ccccc1-c1sc2cc3c(cc2c1-c1ccc(OCCN2CCCCC2)cc1)OCO3 | -0.797%
COCCOC(=O)c1[nH]c2c(c1C)C(=O)CC(c1ccccc1)C2 (stereo unspecified) | -43.6%
CNC(=O)c1ccc(-c2sc3nc(N4CCOCC4)c4c(c3c2N)CC(C)(C)OC4)o1 | 64.8%
COc1ccc(-c2nc3ccc(Cl)cn3c2NC2CCCCC2)cc1SC1CCCCC1 | 60.8%
Cc1c(C(=O)NCCC2=CCCCC2)oc2ccc(S(=O)(=O)N3CCC4(CC3)OCCO4)cc12 | -2.16%
CCOc1ccc(N(CC(=O)Nc2ccccc2C)S(=O)(=O)c2c(C)noc2C)cc1 | -39.9%
CCCCCCSc1cc(-c2nc3ccc(Cl)cn3c2NC2CCCCC2)ccc1OC | 92.5%
Cc1ccc(-n2nc(C)c3c(C)c(CCC(=O)Nc4ccc(CN5CCCC5)cc4)c(C)nc32)cc1 | -16.3%
CCOC(=O)c1cc(-c2ccccc2)sc1NC(=O)COC(=O)c1cccc(S(N)(=O)=O)c1 | -37.6%
C=CCC[C@H](Cc1ccc(F)cc1)C(=O)OC[C@@H](Cc1c[nH]c2ccccc12)NC(=O)[C@H](CC=C)CC(=O)N(CCO)Cc1ccccc1 | -11.6%
O=[N+]([O-])c1ccc(N/N=C\c2cccn2-c2ccccc2)nc1 | -22.9%
COc1ccc(C2=C(C=Nc3c(C)n(C)n(-c4ccccc4)c3=O)C(c3ccccc3C)c3ccccc3O2)cc1OC (stereo unspecified) | -10.9%
COc1cc(-c2nc3c(c(C)nn3-c3ccccc3)c3cc(OC)c(OC)cc23)ccc1O | 46.3%
CN(Cc1ccccc1)C(=O)c1ccc(Nc2nc(C(N)Cc3ccccc3)cs2)nc1 (stereo unspecified) | 7.67%
CC(/C=N/NC(=O)c1n[nH]c2c1CCC2)=C\c1ccccc1 | -18%
COc1ccc(Nc2oc(-c3ccc(Cl)cc3)nc2C#N)cc1 | 4.9%

SMILES | DAPI nuclei signal change (viability), lower = more cytotoxic
CCOc1c(Cl)cc(CNc2ccc(N3CCCC3)cc2)cc1OC | -9.19%
COc1cc(C(=O)NC2CCN(C)CC2)ccc1Nc1ncc2c(n1)N(C1CCCCC1)CCC(=O)N2C | -27.5%
CCOc1ccc(CCNC(=O)CCc2nc(-c3ccc(OC)cc3)no2)cc1OCC | 0.264%
COC(=O)c1ccc(NC(=O)COc2ccc(C3C(C#N)=C(N)Oc4c3ccc3ccccc43)cc2OC)cc1 (stereo unspecified) | -13.5%
NCCC(=O)N1c2ccccc2Sc2ccc(Cl)cc21 | -32.5%
CCC[C@@H](CN[C@@H](CNC)[C@H](C)CC)NCC1CCC(C(C)(C)C)CC1 (stereo partly specified) | -40.5%
COc1ccc(C2NCCc3c2[nH]c2ccccc32)cc1CSc1nc2ccccc2s1 (stereo unspecified) | 8.98%
CN(C)c1ccc(CN2CCC(C(=O)NC(c3ccc(F)cc3)c3ccc4ccccc4n3)CC2)cc1 (stereo unspecified) | -28.2%
O=C(Nc1cccc(-c2csc(Nc3cccc(C(F)(F)F)c3)n2)c1)c1cc([N+](=O)[O-])cc(C(F)(F)F)c1 | -25.2%
CC(C)(C)c1cc(NC(=O)C2(C)CCN2C(=O)C2(c3ccccc3)CCCC2)no1 (stereo unspecified) | -4.05%
O=c1cc(N2CCN(c3cccc(Cl)c3)CC2)[nH]c(=O)n1C1CCCCC1 | -49.6%
O=C(Cn1cc(C(=O)C2CC2)c2ccccc21)NCc1ccc2c(c1)OCO2 | -3.14%
Cc1cccc2c(N=Nc3ccc(S(=O)(=O)Nc4ccc(Cl)cc4)cc3[N+](=O)[O-])c(O)[nH]c12 | -15.2%
CC(=O)O[C@H]1C(=O)[C@@]2(C)[C@H]([C@H](OC(=O)c3ccccc3)[C@]3(O)C[C@H](OC(=O)[C@H](O)[C@@H](NC(=O)c4ccccc4)c4ccccc4)C(C)=C1C3(C)C)[C@]1(OC(C)=O)CO[C@@H]1C[C@@H]2O | -40.3%
Cc1noc(C)c1-c1ccc2ncnc(NCC3CCCCN3C)c2c1 (stereo unspecified) | 13.9%
COC(=O)c1ccc(C(=O)OC)c(NC(=O)CN2CCN(c3ccc(OC)cc3)CC2)c1 | -22.9%
COc1cc(-c2cc3nc(NCCOc4ccccc4)ccn3n2)cc(OC)c1OC | -9.88%
CCCCCCCC(=O)Nc1cc(C(=O)NCCC)ccc1N1CCC2(CC1)CC(c1cccc(Br)c1)=NO2 | 7.35%
CC1(C)CC(=O)C2=C(C1)NC(SCC(=O)Nc1ccccc1)=C(C#N)C21CCCCC1 | 82.7%
CS(=O)(=O)c1ccc(C(=O)OCC(=O)N2CCOCC2)cc1[N+](=O)[O-] | -26.5%
CCN1CCN(Cc2ccc(NC(=O)c3cc(NC(=O)c4cncc(-c5ccc(C#N)cc5)c4)cc(OC)c3)cc2C(F)(F)F)CC1 | 9.22% and -5.99%
CCN(CC)CCCNc1nc2cc(OC)c(OC)cc2c2nc(-c3ccccc3)nn12 | 58.7%
CCCCCc1ccc(-c2cn(Cc3ccc(C(=O)c4ccccc4)cc3)nn2)cc1 | -21.4%

SMILES | DAPI nuclei signal change (viability), lower = more cytotoxic
CCCCCC(=O)Nc1nc(C)c(-c2csc(Nc3cc(OC)ccc3OC)n2)s1 | -8.23%
Cc1[nH]c2ccccc2c1C(c1ccccn1)N1CCC(C)CC1 (stereo unspecified) | -28.8%
CCN1CCN(c2ncc3c(n2)CC(c2cc(OC)c(OC)c(OC)c2)CC3=O)CC1 (stereo unspecified) | -4.74%
Cc1ccc(-n2ncc(Br)c(Br)c2=O)cc1 | -25.9%
Cc1cc(Br)ccc1NC(=O)CNC(=O)Cn1ncc(Cl)c(Cl)c1=O | -11.5%
C=CCC[C@H](Cc1ccc(F)cc1)C(=O)OC[C@@H](NC(=O)[C@@H](CC=C)CC(=O)N(CCO)Cc1ccccc1)C(C)(C)C | -25.7%
CCCCOc1ccccc1C1CC(=O)NC2=C1C(=O)CCC2 (stereo unspecified) | -23.2%
CCCCOc1ccc(NC(=O)C(=O)NCCC2=CCCCC2)cc1 | -36.6%
CC(C)(C)c1ccc(C(=O)NCCC(=O)Nc2cc(Cl)ccc2N2CCOCC2)cc1 | -6.24%
CCC(C)(C)NC(=O)C(c1ccc(OC)cc1)N(CC1CCCO1)C(=O)CCC(=O)Nc1cc(C)on1 (stereo unspecified) | 2.68%
Cn1nnnc1Sc1ncnc2scc(-c3cccc(Br)c3)c12 | -0.663%
Cc1noc(C)c1CSc1nc2[nH]ncc2c(=O)n1-c1ccccc1 | -8.21%
COc1cc(C#Cc2c(-c3cncn3C)n(C)c3ccc(-c4ccc(OC)c(OC)c4)cc23)cc(OC)c1 | 107%
CSC(=S)NN=C(C)c1cccc(C)n1 | -29.3%
O=C(Nc1nc(-c2ccccn2)cs1)c1ccccc1-n1cnnn1 | -30%
Cc1cn(-c2cc(C(=O)Nc3ccc(C)c(NC(=O)C(=O)c4c[nH]c5ccccc45)c3)cc(C(F)(F)F)c2)cn1 | 1.53%
COc1cc(C2C(C#N)=C(N)Oc3cc4c(cc32)OCO4)cc(OC)c1OC (stereo unspecified) | -30.6%
O=[N+]([O-])c1ccc(Sc2cccc[n+]2[O-])c2nonc12 | -43.9%
CCOc1ccc(NC(=O)Cn2nnc(-c3ccccc3NC(=O)C3CC3)n2)cc1 | -20.5%
CN(C)c1ncnc2c1ncn2C1OC(CO)C(O)C1O (stereo unspecified) | -46.2%
CC(C)(C)c1ccc(Oc2ccc(NC(=O)c3ccccc3C(=O)O)cn2)cc1 | -45.3%
NC(=O)N/N=C/c1c(Sc2nnnn2-c2ccccc2)nc2ccccn2c1=O | -22.3%
